Results on 91 compounds are retold here after ChEMBL document CHEMBL1157539, “Thousands of chemical starting points for antimalarial lead identification” (Nature, 2010).

Over roughly 13,000 compounds, “IFI” has its median near 4; the highest 2% begin near 17. This is one part of the list.

This experiment is described as follows: GSK_TCMDC: Inhibition Frequency Index (IFI). The number of non-kinase HTS assays where a compound showed > 50 % inhibition, expressed as a percentage of the number of such assays in which the compound was tested (-0 is zero). In kind it is functional.
With `Nc1ccnc(N2CCC(CCOc3cc(C(F)(F)F)nc4c(C(F)(F)F)cccc34)CC2)c1`, the IFI was found to be 9.49%. Under `O=S(=O)(Nc1cccc(CCN2CCCCC2CCN2CCCC2)c1)c1cccc2ccccc12` (stereo unspecified) stands 6.56%. As for `COc1cccc(C(=O)Nc2nonc2-c2ccc(OC)c(OC)c2)c1`, the IFI was determined as 1%. Under `O=C(Nc1ccccc1)N(Cc1ccc(-c2ccc(CNC3CCCC3)cc2)cc1)C1CCN(Cc2ccccc2)CC1` stands 4.9%.

Compound `S=C(NCCc1ccccc1)Nc1ccc2ncsc2c1` gave an IFI of 4.32%. To `COc1cc(NC(=O)/C=C/c2cc(F)cc(F)c2F)cc(OCCN2CCC(O)(c3ccccc3)CC2)c1` belongs 5.07%; to `O=S(=O)(Nc1ccc2nccc(N3CCNCC3)c2c1)c1ccc(-c2ccccc2)cc1`, 1.48%. Compound `COc1cc2nc(NCCn3ccnc3C)nc(NCCc3ccccc3)c2cc1OC` came in with an IFI of 2.14%.

The compound `CCOc1ccc2c(=NN=Cc3ccc(F)cc3)cc(C)[nH]c2c1` gave an IFI of 1.46%. To `Cc1ccc(O)c(CN2CCCC(COC(c3ccc(F)cc3)c3ccc(F)cc3)C2)c1` (stereo unspecified) belongs 1.55%; to `c1ccc2ncc(CNCCCCCCCCNCc3cnc4ccccc4c3)cc2c1`, 3.82%; to `Cc1ccc(NC(=O)c2c(C)noc2-c2snnc2C)cc1`, 0.69%. `O=C(/C=C/c1ccc(Cl)c(Cl)c1)NCCCCCN1CCCC(CNS(=O)(=O)c2ccc(F)cc2)C1` (stereo unspecified) showed an IFI of 8.57%. Consider `O=C(Cc1cccc2ccccc12)N1CCc2cc3nccc(N4CCN5CCC[C@H]5C4)c3cc21`, for which the IFI came to 1.52%. Under `CCOC(=O)c1ccc(NC(=O)N(Cc2ccc(-c3ccc(CN4CCNCC4)cc3)cc2)Cc2cccnc2)cc1` stands 2.78%; under `CC(C)Sc1nc2c(c(=O)n1Cc1ccco1)C1(CCCC1)Cc1ccccc1-2`, 2.86%.

Regarding `Cc1cc(OCCCn2ccnc2)ccc1-c1csc(/N=C(\N)NCc2ccccc2)n1`, the IFI was found to be 5%. Under `N#Cc1ccc(-c2cnc3ccc(NCCc4cccnc4)nn23)cc1` stands 6.02%.

For the compound `CC(=O)Nc1cccc(C(=O)Nc2cccc(-c3ccc(-c4nc5cccc(C)c5[nH]4)cc3)c2)c1`, the IFI was found to be 6.09%. To `Cc1cccc(CN2CCCN(Cc3cccc(C(=O)Nc4ccc(C(C)(C)C)cc4)c3)CC2)c1` belongs 10.7%; to `CS(=O)(=O)c1ccc2nc(NC(=O)c3csnn3)sc2c1`, -0%; to `Nc1nc(N)c2c(ccc3c2ccn3Cc2ccc(Br)cc2)n1`, 12.6%.

Compound `CCc1c(CCNC/C=C/C=C/CNCCc2ccc(OC)c(OC)c2CC)ccc(OC)c1OC` showed an IFI of 8.51%. To `COc1cccc(NC(=O)NC2CCN(c3ccnc(Nc4ccc(F)cc4)n3)C2)c1` (stereo unspecified) belongs 1.54%. To `Cc1cccc2nc(-c3cccc(-c4ccc(C(=O)NCc5nccn5C)cc4)c3)[nH]c12` belongs 1.83%. Consider `COc1ccc(C2CC(c3ccccc3O)=NN2C(=O)c2ccco2)cc1OC` (stereo unspecified), for which the IFI turned out to be 3.57%. Turning to `Cn1c(-c2ccccc2)cc2c3c(=O)cc(C(F)(F)F)[nH]c3ccc21`, the IFI worked out at 4.71%. Under `Cc1cnc(NCC2CCCCC2)nc1N[C@@H](CC(C)C)C(=O)Nc1ccccc1` stands 13.3%.

With `COc1ccc(-n2nc(C)cc2C(=O)NCc2ccc(-c3c(C)noc3C)cc2)cc1`, the IFI came out at 4.29%. Under `COc1ccc(CN2CCC2=O)c(OC)c1` stands 0.74%. `COc1cccc2c(NN=Cc3ccccc3Cl)cc(C)nc12` yielded an IFI of 8.7%. `CCCCCCCN(CCCCCCC)CCCC(=O)Nc1ccnc2ccc(OC)cc12` gave an IFI of 7.87%. `CN1CCN(c2ccc(Nc3nccc(-c4cnn5ncccc45)n3)cc2Cl)CC1`: the IFI is 13.5%. As to `Fc1cccc(C=NNc2ccnc3cc(Cl)ccc23)c1`, the IFI stood at 2.22%. Under `CCN(CC)CCNc1ccnc2[nH]c3ccc(I)cc3c12` stands 3.01%; under `O=C(Nc1cccc(OC2CCN(Cc3ccsc3)CC2)c1)c1ccc(C(F)(F)F)cc1`, 5.19%.

Regarding `Cc1cccc2nc(-c3cccc(-c4cccc(NC(=O)CNc5ccc(C(N)=O)cc5)c4)c3)[nH]c12`, the IFI worked out at 6.73%.

Turning to `CCCCN1CCCC[C@H]1[C@@H](O)c1ccnc2ccc(OCC)cc12`, the IFI came out at 1.5%.

On to `CCCCNCc1ccc(-c2nc(CN(Cc3ccc(Cl)c(Cl)c3)C(=O)CN(C)C)cs2)cc1`, for which the IFI was 7.53%.

Take `CO/N=C(\C)c1ccc2c(c1)CCN(CCC1CCC(NC(=O)c3cccc(-c4noc(C)n4)c3)CC1)CC2` (stereo unspecified): the IFI was 3.5%.

`CN(C)CCCOc1cccc(CCNCc2cccc(Oc3ccc(Cl)cc3)c2)c1` had an IFI of 5.97%. `O=C(NC1CCN(Cc2ccccc2O)C1)c1ccc(-c2ccccc2)cc1` (stereo unspecified) had an IFI of 4.29%. Compound `CCn1c(-c2nc(-c3ccnc(N4CCN(C)CC4)c3)cnc2N)nc2cc(S(C)(=O)=O)ccc21` came in with an IFI of 0%. Compound `Cc1cc(C(=O)OCC(N)=O)c(C)n1-c1ccc(F)cc1` returned an IFI of 0%. Under `COc1cccc2cc(C(=O)N[C@@H](CC(C)C)C(=O)N[C@H](C=NN3CC(=O)NC3=O)CC(C)C)oc12` stands 2.75%; under `CCOc1cc(N)c2nc3ccc([N+](=O)[O-])cc3cc2c1`, 6.47%. To `Cc1cccc2nc(-c3ccc(-c4ccc(CN5CCN(c6cnccn6)CC5)cc4)s3)[nH]c12` belongs 4.23%; to `COc1ccccc1CC1CCCN(C2CCC(NC(=O)c3cc4ccccc4[nH]3)CC2)C1` (stereo unspecified), 4.48%. Compound `O=C(c1ccc([N+](=O)[O-])o1)N1CCC(Cc2ccc(C(F)(F)F)cc2)CC1` returned an IFI of 9.52%. In turn, `CC(C)(C)NC(=O)COC(=O)c1c2c(nc3ccccc13)C(=Cc1ccc3c(c1)OCO3)CCC2` showed an IFI of 6.9%. Turning to `Cc1cnc(C(=O)Nc2cccc(-c3ccc(-c4nc5cc(C(F)(F)F)ccc5[nH]4)s3)c2)cn1`, the IFI was -0%. To `Nc1ccc2[nH]cc(C3CCN(CC4CCC(NC(=O)/C=C/c5ccccc5Cl)CC4)CC3)c2n1` (stereo unspecified) belongs 4.44%. To `CCc1sc(N2CCN(C)CC2)nc1C(=O)NCCc1ccc(Cl)c(Cl)c1` belongs 1.92%; to `Cc1ccccc1C1CCN(C2CCC(NC(=O)/C=C/c3cccc(C(F)(F)F)c3)CC2)CC1` (stereo unspecified), 13.1%. Under `COc1ccc(C(=O)Nc2ccc3nc(N4CCCCC4)cc(C)c3c2)cc1[N+](=O)[O-]` stands 9.89%; under `COc1cccc(COCC(O)CN(CCc2ccccn2)C(=O)c2ccccc2F)c1` (stereo unspecified), 0%; under `O=C(CC(=O)C(F)(F)F)c1ccc2c(c1)OCO2`, 1.42%. `O=C(COc1cnc2ccccc2n1)Nc1ccccc1Sc1ccc(Cl)cc1` showed an IFI of 2.27%. For `Nc1nccc2ccc(-c3cccc(O)c3)cc12`, the IFI amounted to 7.14%. `c1ccc2[nH]c(-c3ccc(-c4ccc(CNC5CC5)cc4)s3)nc2c1` displayed an IFI of 2.97%. Under `COc1nc2c(CCN3CCC(NCc4ccc5c(n4)NC(=O)CO5)CC3)c(Cl)cnc2cc1F` stands 4.32%; under `CCOC(=O)CN(c1ccc(Br)cc1OCCOc1cc(Br)ccc1N(CC(=O)OCC)C(C)C(=O)OCC)C(C)C(=O)OCC` (stereo unspecified), 0.75%; under `COc1ccc2c(ccc3c2ncc2c(=O)n(-c4ccccc4)[nH]c23)c1`, 0%.

`Oc1ccc(CCNc2nc(NCc3ccccc3-c3ccc(F)cc3)nc(N3CCNCC3)n2)cc1` gave an IFI of 13.6%. Under `CC(=O)Nc1ccc2[nH]cc(C3CCN(CCC4CCN(C(=O)/C=C/c5ccc(Cl)c(Cl)c5)CC4)CC3)c2c1` stands 2.92%; under `Cc1c2ccc(N(C)c3ccnc(Nc4ccc5c(c4)nc(NC(C)C)n5C)n3)cc2nn1C`, 7.3%. In turn, `CO/C(=C\C=C\c1cc2cc(Cl)c(Cl)cc2[nH]1)C(=O)NCCCN1CCN(c2cccc(CCCO)c2)CC1` gave an IFI of 12.8%. For the compound `COc1cccc(CC(=O)N2CCC(n3c(C)nc4ccc(C)cc43)CC2)c1`, the IFI turned out to be 0%. In turn, `Oc1ccc2[nH]c(-c3cccs3)nc2c1CN1CCC(O)(c2ccccc2)CC1` showed an IFI of 1.02%. Consider `Cc1cc(O)c(-c2ccc(OCc3ccc(Cl)cc3)cc2)c(C)n1`, for which the IFI came out at 0.76%. To `CCC(=O)c1c(C)n(-c2ncnc3c2nc(C)n3-c2ccc(C)cc2C)c2ccccc12` belongs 1.67%; to `Cc1nc(C)c(-c2ccc(Oc3ccc(Cl)c(Cl)c3)cc2)c(O)c1Cl`, 3.82%. `O=C(/C=C/c1ccc(Cl)c(Cl)c1)NCCCCCN1CCCC(C(=O)Nc2cccc(Cl)c2)C1` (stereo unspecified) gave an IFI of 14.9%.

Take `CCCOc1ccc(C(=O)Nc2nonc2-c2ccc(OC)c(OC)c2)cc1`: the IFI was 0.94%. To `CC(NC(=O)c1ccc(O)c(-c2ccc(Cl)c(Cl)c2)c1)C(=O)NCCN1CCOCC1` (stereo unspecified) belongs 1.48%; to `Cc1[nH]c(C)c([N+](=O)[O-])c(=O)c1-c1ccc(Oc2ccc(OC(F)(F)F)cc2)cc1`, 0.85%. Under `CS(=O)(=O)CCNCc1ccc(-c2ccc3c(Nc4ccc(Cl)cc4F)ccnc3c2)o1` stands 5.88%; under `CCN(CC)CCN(Cc1ccc(-c2ccc(C(F)(F)F)cc2)cc1)C(=O)Cn1c(CCC2CCCCC2)nc(=O)c2ccccc21`, 6.11%. The compound `Cc1nc(-c2ccc(-c3ccc(C(=O)Nc4ccc(C(C)C)c(OCCN(C)C)c4)cc3)c(C)c2)no1` had an IFI of 8.4%. `CCC[C@@H]([C@@H](CC1CCCCC1)C(=O)N[C@H](C(=O)Nc1nccs1)C(C)(C)SCCNC(=O)OCC)N(O)C=O` registered an IFI of 5.84%.

Compound `CN1CCN(Cc2nc(-c3ccc4c(Nc5ccc(Oc6ccccc6)cc5)ccnc4c3)cs2)CC1` yielded an IFI of 5.19%. To `COc1ccc(OC)c2c1CCN(C)C2Cc1cccc2ccccc12` (stereo unspecified) belongs 2.16%. `Cc1cnc(-c2ccc(NC(=O)N3CCc4cc5nccc(N6CCN7CCC[C@H]7C6)c5cc43)c3ccccc23)o1` displayed an IFI of 4.2%.

In the case of `COc1ccccc1NC(=O)NC1CCN(CCCCCNC(=O)/C=C/c2ccc(Cl)c(Cl)c2)CC1`, the IFI was 4.32%. As to `Oc1ccc(Br)cc1-c1nc2ccc(Cl)cc2nc1-c1cc(Br)ccc1O`, the IFI was 4.32%. To `O=C(NCCc1ccccc1)N(Cc1ccccc1-c1ccc(CNC2CCCC2)cc1)C1CCN(Cc2ccccc2)CC1` belongs 7.25%; to `CCN(c1cc(C)nc(Nc2ccc(Cl)cc2)n1)[C@H]1CCN(Cc2ccccc2)C1`, 7.23%. `CC(=O)N(C)c1cccc(C(=O)Nc2cccc(-c3cccc(-c4nc5cccc(C)c5[nH]4)c3)c2)c1` had an IFI of 3.48%. With `COc1ccc(CCNCCCCCCNCCc2ccc(Cl)c3ccccc23)cc1OC`, the IFI amounted to 9.42%. To `Nc1ccc(-c2csc(Nc3ccncc3)n2)cc1` belongs 1.49%; to `O=C(N[C@H](CC1CCCCC1)C(=O)NC1CCCc2ccccc21)c1ccc(O)c(-c2cccc([N+](=O)[O-])c2)c1` (stereo partly specified), 0.7%.
